The list shows a part of the results. Sequences were assembled here from the parent chain. Values near 0.05 are background.

We go through nine variants from the supplement of paper PMC12217912.

B1: TEV protease; numbered along this chain (parent)
chain: MGESLFKGPRDYNPISSSICHLTNESDGHTTSLYGIGFGPFIITNKHLFRRNNGTLVVQSLHGVFKVKDTTTLQQHLVDGRDMIIIRMPKDFPPFPQKLKFREPQREERICLVTTNFQTKSMSSMVSDTSCTFPSGDGIFWKHWIQTKDGQCGSPLVSTRDGFIVGIHSASNFTNTNNYFTSVPKNFMELLTNQEAQQWVSGWRLNADSVLWGGHKVFMVKPEEPFQPVKEATQL

This assay covers variants of B1. The assay is described as follows: raw area under fraction-flipped curve 0-4 h after induction (AUC4h, not background-subtracted), DNA-recorder readout of cleavage of the substrate (dimensionless); higher = more cleavage of the substrate by the protease variant. To be noted: temperature: 34 °C; time window: 0-4 h after rhamnose induction. The procedure: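 In vivo DNA recorder in E. coli TOP10(DE3) ΔrhaA at 34 °C. Each TEVp single-site mutant (parent TEVp 0) is paired with a single-site variant of the 7-mer TEVs (canonical ENLYFQ|S). The substrate sits between flexible linkers in a Bxb1-sfGFP-TEVs-SsrA fusion, so cleavage stabilises Bxb1 and speeds flipping of a recombination array, read by NGS. The value is the raw area under the fraction-flipped curve over 0-4 h after rhamnose induction (AUC4h), with ≥20 reads per time point. It is not background-subtracted; inactive controls average about 0.047.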
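Also: Bxb1 expression induced with 0.2% (w/v) L-rhamnose at OD600 near 0.5, cultures sampled hourly, flipped fraction per protease–substrate barcode pair counted by paired-end Illumina sequencing.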

Take MGESLFKGPRDYNPISSSICHLTNESDGHTTSLYGIGFGPFIITNKHLFRRNNGTLVVQSLHGVFKVKDTTTLQQHLVDGRDMIIIRMPKDFPPFPQKLKFREPQREERICLVTTNFYTKSMSSMVSDTSCTFPSGDGIFWKHWIQTKDGQCGSPLVSTRDGFIVGIHSASNFTNTNNYFTSVPKNFMELLTNQEAQQWVSGWRLNADSVLWGGHKVFMVKPEEPFQPVKEATQL [Q118Y]: the “area with substrate ENLYAQS” value was 0.0762, the “area with substrate ENLYDQS” value came to 0.0441, the “area with substrate ENLYEQS” value came out at 0.0656 and the “area with substrate ENLYHQS” value was 0.0768. The “area with substrate ENLYIQS” value worked out at 0.116, the “area with substrate ENLYMQS” value amounted to 0.0461, the “area with substrate ENLYNQS” value was found to be 0.0689 and the “area with substrate ENLYQQS” value came to 0.0725. In addition, the “area with substrate ENLYRQS” value was 0.0715, the “area with substrate ENLYTQS” value was determined as 0.0807 and the “area with substrate ENLYWQS” value came to 0.0744.
For the variant MGESLFKGPRDYNPISSSICHLTNESDGHTTSLYGIGFGPFIITNKHLFRRNNGTLVVQSLHGVFKVKDTTTLQQHLVDGRDMIIIRMPKDFPPFPQKLKFREPQREERICLVTTNFQTKSMSSMCSDTSCTFPSGDGIFWKHWIQTKDGQCGSPLVSTRDGFIVGIHSASNFTNTNNYFTSVPKNFMELLTNQEAQQWVSGWRLNADSVLWGGHKVFMVKPEEPFQPVKEATQL [V126C], the “area with substrate ENLYAQS” value came to 0.095, the “area with substrate ENLYDQS” value is 0.0714, the “area with substrate ENLYHQS” value came to 0.0684 and the “area with substrate ENLYIQS” value is 0.127. For the same variant, the “area with substrate ENLYKQS” value came to 0.0541, the “area with substrate ENLYNQS” value is 0.0901 and the “area with substrate ENLYPQS” value came out at 0.0638.
MGESLFKGPRPYNPISSSICHLTNESDGHTTSLYGIGFGPFIITNKHLFRRNNGTLVVQSLHGVFKVKDTTTLQQHLVDGRDMIIIRMPKDFPPFPQKLKFREPQREERICLVTTNFQTKSMSSMVSDTSCTFPSGDGIFWKHWIQTKDGQCGSPLVSTRDGFIVGIHSASNFTNTNNYFTSVPKNFMELLTNQEAQQWVSGWRLNADSVLWGGHKVFMVKPEEPFQPVKEATQL [D11P]: the “area with substrate ENLYAQS” value stood at 0.0529, the “area with substrate ENLYEQS” value came out at 0.062, the “area with substrate ENLYHQS” value turned out to be 0.0629 and the “area with substrate ENLYIQS” value is 0.0643. The “area with substrate ENLYMQS” value amounted to 0.0523, the “area with substrate ENLYNQS” value is 0.0626, the “area with substrate ENLYPQS” value is 0.0666 and the “area with substrate ENLYQQS” value stood at 0.0681. The “area with substrate ENLYRQS” value stood at 0.071, the “area with substrate ENLYSQS” value stood at 0.0588, the “area with substrate ENLYVQS” value is 0.0597 and the “area with substrate ENLYWQS” value was determined as 0.0656.
Consider MGESLFKGPRDYNPISSSICHLTNESDGHTTSLYGIGFGPFIITNKHLFRRNNGTLVVQSLHGVFKVKDTTTLQQDLVDGRDMIIIRMPKDFPPFPQKLKFREPQREERICLVTTNFQTKSMSSMVSDTSCTFPSGDGIFWKHWIQTKDGQCGSPLVSTRDGFIVGIHSASNFTNTNNYFTSVPKNFMELLTNQEAQQWVSGWRLNADSVLWGGHKVFMVKPEEPFQPVKEATQL [H76D], for which the “area with substrate ENLYAQS” value is 0.0594, the “area with substrate ENLYDQS” value was 0.0666, the “area with substrate ENLYGQS” value came to 0.0357 and the “area with substrate ENLYHQS” value is 0.0611. Further, the “area with substrate ENLYIQS” value is 0.074, the “area with substrate ENLYKQS” value was determined as 0.0648, the “area with substrate ENLYMQS” value was determined as 0.0631 and the “area with substrate ENLYNQS” value worked out at 0.0631. Moreover, the “area with substrate ENLYTQS” value came to 0.0271, the “area with substrate ENLYVQS” value worked out at 0.0557 and the “area with substrate ENLYWQS” value was determined as 0.0591.
Take MGESLFKGPRDYNPISSSICHLTNESDGHTTSLYGIGFGPFIITNKHLFRRNNGTLVVQSLHGVFKVKDTTTLQQHLVDGRDMIIIRMPKDFPPFPQKLKFREPQREERICLVTTNFQTKSMSSMVSDTSCTFPSGDGIFWKHWIQTKDGQCGSPLVSTRDGFIVGIHSASNFTNTNNYFTSVPKNFMELLTNQEAQQWVSGWRLNADSVLWGGHKVFMVKPEEPEQPVKEATQL [F226E]: the “area with substrate ENLYAQS” value turned out to be 0.0487, the “area with substrate ENLYCQS” value was 0.109, the “area with substrate ENLYDQS” value was found to be 0.0765 and the “area with substrate ENLYEQS” value came to 0.0924. The “area with substrate ENLYGQS” value is 0.0691, the “area with substrate ENLYHQS” value is 0.0713, the “area with substrate ENLYKQS” value was found to be 0.108 and the “area with substrate ENLYNQS” value turned out to be 0.069. In addition, the “area with substrate ENLYPQS” value is 0.0739, the “area with substrate ENLYRQS” value was found to be 0.0545, the “area with substrate ENLYSQS” value stood at 0.0589 and the “area with substrate ENLYVQS” value is 0.097. In addition, the “area with substrate ENLYWQS” value was found to be 0.064 and the “area with substrate ENLYYQS” value amounted to 0.0638.
For the variant MGESLFKGPRDYNPISSSICHDTNESDGHTTSLYGIGFGPFIITNKHLFRRNNGTLVVQSLHGVFKVKDTTTLQQHLVDGRDMIIIRMPKDFPPFPQKLKFREPQREERICLVTTNFQTKSMSSMVSDTSCTFPSGDGIFWKHWIQTKDGQCGSPLVSTRDGFIVGIHSASNFTNTNNYFTSVPKNFMELLTNQEAQQWVSGWRLNADSVLWGGHKVFMVKPEEPFQPVKEATQL [L22D], the “area with substrate ENLYAQS” value stood at 0.07, the “area with substrate ENLYDQS” value came to 0.0529, the “area with substrate ENLYEQS” value turned out to be 0.0499 and the “area with substrate ENLYGQS” value was 0.0585. For the same variant, the “area with substrate ENLYHQS” value was 0.0409, the “area with substrate ENLYIQS” value turned out to be 0.0477, the “area with substrate ENLYKQS” value worked out at 0.0547 and the “area with substrate ENLYLQS” value was determined as 0.0508. In addition, the “area with substrate ENLYMQS” value came to 0.0357, the “area with substrate ENLYNQS” value turned out to be 0.035, the “area with substrate ENLYPQS” value came to 0.0377 and the “area with substrate ENLYQQS” value turned out to be 0.0541. Besides, the “area with substrate ENLYRQS” value was determined as 0.0562, the “area with substrate ENLYSQS” value was 0.0471, the “area with substrate ENLYTQS” value came out at 0.0489 and the “area with substrate ENLYVQS” value turned out to be 0.0478. In addition, the “area with substrate ENLYWQS” value worked out at 0.0483 and the “area with substrate ENLYYQS” value was 0.071.
For the variant MGESLFKGPRDYNPISSSICHLTNESDGHTTSLYGIGFGPQIITNKHLFRRNNGTLVVQSLHGVFKVKDTTTLQQHLVDGRDMIIIRMPKDFPPFPQKLKFREPQREERICLVTTNFQTKSMSSMVSDTSCTFPSGDGIFWKHWIQTKDGQCGSPLVSTRDGFIVGIHSASNFTNTNNYFTSVPKNFMELLTNQEAQQWVSGWRLNADSVLWGGHKVFMVKPEEPFQPVKEATQL [F41Q], the “area with substrate ENLYAQS” value worked out at 0.0533, the “area with substrate ENLYCQS” value stood at 0.0584, the “area with substrate ENLYDQS” value was found to be 0.0452 and the “area with substrate ENLYEQS” value was found to be 0.0609. Also, the “area with substrate ENLYGQS” value is 0.0561, the “area with substrate ENLYHQS” value was 0.0581, the “area with substrate ENLYIQS” value came out at 0.0974 and the “area with substrate ENLYKQS” value turned out to be 0.0462. In addition, the “area with substrate ENLYLQS” value was 0.0683, the “area with substrate ENLYMQS” value was found to be 0.0663, the “area with substrate ENLYPQS” value came to 0.0644 and the “area with substrate ENLYQQS” value was found to be 0.0514. Besides, the “area with substrate ENLYRQS” value came to 0.0644, the “area with substrate ENLYSQS” value was 0.0689, the “area with substrate ENLYTQS” value stood at 0.0563 and the “area with substrate ENLYVQS” value came out at 0.0979. Moreover, the “area with substrate ENLYWQS” value came out at 0.0655 and the “area with substrate ENLYYQS” value stood at 0.0538.
Turning to MGESLFKGPRDYNPISSSICHLTNESDGHTTSLYGIGFGPFIITNKHLFRRNNGTLVVQCLHGVFKVKDTTTLQQHLVDGRDMIIIRMPKDFPPFPQKLKFREPQREERICLVTTNFQTKSMSSMVSDTSCTFPSGDGIFWKHWIQTKDGQCGSPLVSTRDGFIVGIHSASNFTNTNNYFTSVPKNFMELLTNQEAQQWVSGWRLNADSVLWGGHKVFMVKPEEPFQPVKEATQL [S60C], the “area with substrate ENLYAQS” value was 0.0752, the “area with substrate ENLYCQS” value came to 0.117, the “area with substrate ENLYDQS” value is 0.0671 and the “area with substrate ENLYEQS” value worked out at 0.0635. The “area with substrate ENLYGQS” value was 0.0609, the “area with substrate ENLYHQS” value came out at 0.0705, the “area with substrate ENLYIQS” value was found to be 0.142 and the “area with substrate ENLYKQS” value was 0.048. For the same variant, the “area with substrate ENLYMQS” value came out at 0.0889, the “area with substrate ENLYNQS” value stood at 0.0625, the “area with substrate ENLYQQS” value worked out at 0.0619 and the “area with substrate ENLYRQS” value came to 0.0689. Also, the “area with substrate ENLYSQS” value was found to be 0.0779, the “area with substrate ENLYTQS” value was 0.0831, the “area with substrate ENLYVQS” value was determined as 0.0759 and the “area with substrate ENLYWQS” value turned out to be 0.073. Moreover, the “area with substrate ENLYYQS” value came out at 0.0594.
As to MGESLFKGPRDYNPISSSICHLTNESDGHTTSLYGIGFGPFIIINKHLFRRNNGTLVVQSLHGVFKVKDTTTLQQHLVDGRDMIIIRMPKDFPPFPQKLKFREPQREERICLVTTNFQTKSMSSMVSDTSCTFPSGDGIFWKHWIQTKDGQCGSPLVSTRDGFIVGIHSASNFTNTNNYFTSVPKNFMELLTNQEAQQWVSGWRLNADSVLWGGHKVFMVKPEEPFQPVKEATQL [T44I], the “area with substrate ENLYAQS” value stood at 0.0547, the “area with substrate ENLYCQS” value is 0.081, the “area with substrate ENLYDQS” value came to 0.0636 and the “area with substrate ENLYEQS” value came to 0.0788. Moreover, the “area with substrate ENLYGQS” value came out at 0.0538, the “area with substrate ENLYHQS” value was determined as 0.0082, the “area with substrate ENLYIQS” value was determined as 0.0541 and the “area with substrate ENLYKQS” value came to 0.0555. Moreover, the “area with substrate ENLYLQS” value was 0.055, the “area with substrate ENLYMQS” value was 0.0551, the “area with substrate ENLYNQS” value came out at 0.0517 and the “area with substrate ENLYPQS” value turned out to be 0.0515. Besides, the “area with substrate ENLYQQS” value is 0.0555, the “area with substrate ENLYRQS” value was found to be 0.0601, the “area with substrate ENLYSQS” value turned out to be 0.0422 and the “area with substrate ENLYVQS” value was 0.0577. Also, the “area with substrate ENLYWQS” value was 0.0554.
